Reference: the supplement of paper PMC4967469
The IC50 comes from the fitted curve, where viability falls to half of the control; where the fit passes the top or lowest dose, that dose stands as a limit. For AUC the same curve is integrated over the 256-fold range of doses and scaled to a fraction; it is 1 without any effect and falls as sensitivity rises. A top dose marked as inferred comes from the curve model; the source does not state it. For some of these results: An entry number marks a drug with two screens in the source, which often give different values.

Columns and labels:
Test in all cases: Viability of human cancer cell lines after 72 h of drug (GDSC screen)
CGP-082996 (CINK4) = compound: CCNc1cc(NC2CCC(O)CC2)nc(Nc2ccc3c(ccn3Cc3ccccc3)c2)n1 [CGP-082996 (CINK4)]; conditions: top dose 5.12 µM; top dose inferred
Method: (§1)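 Human cancer cell lines in 384-well plates, medium with 10% serum, drug for 72 h over a 256-fold dose range (nine 2-fold or five 4-fold steps up to the top dose). Adherent lines were fixed and stained with the nucleic acid dye Syto60, suspension lines read with resazurin; signal relative to control wells, capped at 0 and 100%. One two-parameter sigmoid per drug and line, fitted in a mixed model over all curves with the slope shared within a line.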

Olaparib = compound: O=C(c1cc(Cc2n[nH]c(=O)c3ccccc23)ccc1F)N1CCN(C(=O)C2CC2)CC1 [Olaparib]
Method: as §1

BMS-536924 = compound: Cc1cc(N2CCOCC2)cc2[nH]c(-c3c(NC[C@@H](O)c4cccc(Cl)c4)cc[nH]c3=O)nc12 [BMS-536924]
Method: as §1

VX-702 = compound: NC(=O)c1ccc(N(C(N)=O)c2c(F)cccc2F)nc1-c1ccc(F)cc1F [VX-702]; conditions: top dose 2 µM; top dose inferred
Method: as §1

Wee1 inhibitor 681640 = compound: O=C1NC(=O)c2c1c(-c1ccccc1Cl)cc1[nH]c3ccc(O)cc3c21 [Wee1 inhibitor 681640]; conditions: top dose 2 µM; top dose inferred
Method: as §1

SB-525334 = compound: Cc1cccc(-c2[nH]c(C(C)(C)C)nc2-c2ccc3nccnc3c2)n1 [SB-525334]; conditions: top dose 20 µM; top dose inferred
Method: as §1

XMD8-85 = compound: COc1cc(N2CCN(C)CC2)ccc1Nc1ncc2c(n1)N(C)c1ccccc1C(=O)N2C [XMD8-85]; conditions: top dose 8 µM; top dose inferred
Method: as §1

A-770041 = compound: COc1cc(-c2nn([C@H]3CC[C@H](N4CCN(C(C)=O)CC4)CC3)c3ncnc(N)c23)ccc1NC(=O)c1cc2ccccc2n1C [A-770041]; conditions: top dose 5.12 µM; top dose inferred
Method: as §1

Shikonin = compound: CC(C)=CC[C@@H](O)C1=CC(=O)c2c(O)ccc(O)c2C1=O [Shikonin]; conditions: top dose 16 µM; top dose inferred
Method: as §1

BIRB 0796 = compound: Cc1ccc(-n2nc(C(C)(C)C)cc2NC(=O)Nc2ccc(OCCN3CCOCC3)c3ccccc23)cc1 [BIRB 0796]; conditions: top dose 10 µM; top dose inferred
Method: as §1

[1] = top dose 5 µM, screen: GDSC drug entry 1017, top dose inferred
[2] = top dose 10 µM, screen: GDSC drug entry 1495
[3] = top dose 4 µM, screen: GDSC drug entry 1091, top dose inferred
[4] = top dose 5.12 µM, screen: GDSC drug entry 62

Cell Line	AUC (CGP-082996 (CINK4))	IC50 (CGP-082996 (CINK4))	AUC (Olaparib; [1])	IC50 (Olaparib; [1])	AUC (Olaparib; [2])	IC50 (Olaparib; [2])	AUC (BMS-536924; [3])	IC50 (BMS-536924; [3])	AUC (BMS-536924; [4])	IC50 (BMS-536924; [4])	AUC (VX-702)	IC50 (VX-702)	AUC (Wee1 inhibitor 681640)	IC50 (Wee1 inhibitor 681640)	AUC (SB-525334)	IC50 (SB-525334)	AUC (XMD8-85)	IC50 (XMD8-85)	AUC (A-770041)	IC50 (A-770041)	AUC (Shikonin)	IC50 (Shikonin)	AUC (BIRB 0796)	IC50 (BIRB 0796)
EW-13 (Ewing sarcoma, suspension)	0.983	> 5.12 µM	0.949	> 5 µM	0.879	> 10 µM	0.965	> 4 µM	0.952	> 5.12 µM	0.919	> 2 µM	0.982	> 2 µM	0.904	> 20 µM	0.982	> 8 µM	0.981	> 5.12 µM	0.381	0.454 µM	0.977	> 10 µM
EW-18 (Ewing sarcoma, suspension)	0.981	> 5.12 µM	0.949	> 5 µM	0.965	> 10 µM	0.805	2.18 µM	0.955	> 5.12 µM	0.921	> 2 µM	0.937	> 2 µM	0.648	3.31 µM	0.985	> 8 µM	0.967	> 5.12 µM	0.408	0.55 µM	0.986	> 10 µM
GCIY (stomach, adherent)	0.928	> 5.12 µM	0.984	> 5 µM	–	–	–	–	0.538	0.412 µM	0.981	> 2 µM	0.984	> 2 µM	0.954	> 20 µM	0.957	> 8 µM	0.773	2.25 µM	0.221	0.135 µM	0.984	> 10 µM
GDM-1 (acute myeloid leukaemia, suspension)	0.872	4.5 µM	0.987	> 5 µM	0.974	> 10 µM	0.655	0.66 µM	0.384	0.156 µM	0.987	> 2 µM	0.985	> 2 µM	0.931	> 20 µM	0.645	1.23 µM	0.945	> 5.12 µM	0.64	2.4 µM	0.984	> 10 µM
HAL-01 (lymphoblastic leukaemia, suspension)	0.895	4.95 µM	0.938	> 5 µM	0.962	> 10 µM	0.829	2.1 µM	0.707	1.13 µM	0.884	1.73 µM	0.88	1.66 µM	0.979	> 20 µM	0.736	2.14 µM	0.826	2.64 µM	0.239	0.197 µM	0.961	> 10 µM
HC-1 (hairy cell leukaemia, suspension)	0.891	> 5.12 µM	0.987	> 5 µM	0.937	> 10 µM	0.919	> 4 µM	0.86	4.01 µM	0.987	> 2 µM	0.972	> 2 µM	0.877	18.8 µM	0.883	7.98 µM	0.782	2.05 µM	0.751	5.08 µM	0.975	> 10 µM
HDLM-2 (Hodgkin lymphoma, suspension)	0.922	> 5.12 µM	0.976	> 5 µM	0.949	> 10 µM	0.925	> 4 µM	0.949	> 5.12 µM	0.969	> 2 µM	0.943	> 2 µM	0.984	> 20 µM	0.939	> 8 µM	0.728	1.41 µM	0.852	12.1 µM	0.959	> 10 µM
HH (T-cell leukaemia, suspension)	0.875	> 5.12 µM	0.976	> 5 µM	0.967	> 10 µM	0.964	> 4 µM	0.917	> 5.12 µM	0.951	> 2 µM	0.947	> 2 µM	0.933	> 20 µM	0.79	4.93 µM	0.854	> 5.12 µM	0.494	0.958 µM	0.948	> 10 µM
HT (B-cell lymphoma, suspension)	0.921	> 5.12 µM	0.989	> 5 µM	0.983	> 10 µM	0.977	> 4 µM	0.99	> 5.12 µM	0.988	> 2 µM	0.97	> 2 µM	0.969	> 20 µM	0.884	7.41 µM	0.937	> 5.12 µM	0.488	0.932 µM	0.969	> 10 µM
IMR-5 (neuroblastoma, adherent)	0.936	> 5.12 µM	0.972	> 5 µM	0.906	9.83 µM	0.969	> 4 µM	0.918	> 5.12 µM	0.989	> 2 µM	0.991	> 2 µM	0.892	16.9 µM	0.885	–	0.827	2.49 µM	0.383	0.504 µM	0.992	> 10 µM
IST-SL1 (small cell lung carcinoma, semi-adherent)	0.949	> 5.12 µM	0.979	> 5 µM	0.964	> 10 µM	0.963	> 4 µM	0.963	> 5.12 µM	0.979	> 2 µM	0.855	1.67 µM	0.889	> 20 µM	0.926	> 8 µM	0.97	> 5.12 µM	0.904	> 16 µM	0.959	> 10 µM
